Out of some 360,000 compounds screened, about 6,000 (1.7%) were called active. The inconclusive results got no clear call from the source; some entries with a clear call stand among them for comparison. Calls follow the shape of the dose curve; as a rule, active = well fitted cell-killing curve with a large enough effect; inconclusive = small, poorly fitted or top-dose-only effect, or effect the other way; inactive = flat fitted curve, though single readings scatter. No potency is given beside an inconclusive call; the fits are too rough. Some compounds were tested as several samples or in several runs, with calls that do not always agree.
Test: qHTS for induction of synthetic lethality in tumor cells producing 2HG: qHTS for the HT-1080-NT fibrosarcoma cell line;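 also: NT is the 2HG producing partner of a matched IDH1 knockdown line; nearly all actives have a fitted effect of over 55% in size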;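 as to activity, negative = less viability: 0% = DMSO-treated cells and -100% = media-only wells without cells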
Conditions: HT-1080-NT fibrosarcoma viability, CellTiter-Glo ATP luminescence, 48 h; activity, negative = less viability: at 46.1 µM (top of the series) unless noted
In short: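 750 cells/well, RPMI + 5% FBS; 2 h settle, compound pin-transfer, 48 h at 37 degrees C. CellTiter-Glo 10 min RT, luminescence. Normalized to DMSO and media-only wells.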
Potency is read from the fitted curve at half-maximal effect; tags tell the direction and shape of the fitted curve.

Compound | activity, negative = less viability | Potency
CC1CCc2sc(C(=O)NNC(=S)NC3CC3)cc2C1 (configuration not stated) | inconclusive: 21.9% | –
CCN(CC)S(=O)(=O)c1cccc(C(=O)N2CC(O)CC2C(=O)O)c1 (configuration not stated) | – | inconclusive [rising, single point]
COC(=O)C1=C(C(=O)OC)[C@@H]2N(Cc3ccccc3)c3ccccc3[C@@]23C[C@@H](C(=O)OC)N(C(=O)c2cccs2)C3=N1 | – | inconclusive [cytotoxic, single point]
COC(=O)c1ccc2cc(F)cc(C)c2n1 | – | inconclusive [rising, partial curve, poor fit]
COc1cc(/C=C/C(=O)c2c(O)ccc3c(C)cc(=O)oc23)ccc1O | – | inconclusive [cytotoxic, single point]
COc1ccc(NC(=O)CSc2nnc(NC(=O)c3ccco3)s2)cc1OC | – | inactive
CCOc1c2ccccc2nn1CCO | – | inactive
Cc1ccc2nc(-c3cccc(SC4CCCCC4)c3)c(NCc3ccccc3)n2c1 | – | inconclusive [cytotoxic, single point]
C(=C\c1ccccc1)/CN1CCN(C(CCc2ccccc2)c2nnnn2C2CCCC2)CC1 (configuration not stated) | – | inconclusive [cytotoxic, single point]
S=C1Cc2ccccc2N1 | – | active: 4.61 µM
CC(=O)Nc1ccc(OS(=O)(=O)c2ccccc2C)cc1 | – | inactive
CCC(=O)c1ccc(OCC(O)CNCCc2ccc(Cl)cc2)cc1 (configuration not stated) | – | inconclusive [cytotoxic, single point]
O=C(Nc1scc(-c2ccc(Br)cc2)c1C(=O)O)c1ccccc1F | – | inconclusive [cytotoxic, partial curve]
Cn1nc(-c2ccccn2)nc2c(=O)n(C)c(=O)nc1-2 | – | active: 1.84 µM
CNC(=O)c1cc(S(=O)(=O)Nc2ccc(C)cc2C)ccc1C | – | inactive
COC(=O)c1ccc(NS(=O)(=O)NC(=O)c2c[nH]c3ccccc23)cc1 | – | inconclusive [cytotoxic, full curve, poor fit]
CCOC(=O)/C=C/C(=O)Nc1cccc([N+](=O)[O-])c1 | – | inconclusive [cytotoxic, single point]
O=C(N/N=C/c1ccc(O)c(O)c1O)/C(=C/c1ccc([N+](=O)[O-])cc1)NC(=O)c1ccccc1 | – | inconclusive [cytotoxic, partial curve]
OC[C@@H]1CN(Cc2cccc(C(F)(F)F)c2)C[C@H](n2cnc3c(NCc4ccc(F)cc4)ncnc32)O1 | – | inconclusive [cytotoxic, partial curve]
CN(Cc1cnc2nc(N)nc(N)c2n1)c1ccc(C(=O)N[C@@H](CCC(=O)O)C(=O)O)cc1 | – | active: 0.0052 µM
COC(=O)c1ccc(C2c3[nH]c4ccccc4c3C[C@H]3C(=O)N(C4CCN(Cc5ccccc5)CC4)CC(=O)N23)cc1 (some centres not stated) | – | inconclusive [cytotoxic, single point]
COc1ccc(NC(=S)Nc2cc(-c3ccccc3)[nH]n2)cc1Cl | – | active: 12.6 µM
Cc1cccc(/N=C/c2c(O)n(Cc3ccc4c(c3)OCO4)c(=O)c3ccccc23)n1 | – | inconclusive [rising, single point]
CCOC(=O)N1CCN(S(=O)(=O)c2ccc(C(=O)NNc3nc4cc(C)cc(C)c4s3)cc2)CC1 | – | inconclusive [cytotoxic, single point]

Compound | activity, negative = less viability | Potency
Nc1ccc(NC(=O)c2cccc(C(=O)Nc3ccc(N)cc3Cl)c2)c(Cl)c1 | – | inconclusive [cytotoxic, single point]
Cc1cc(=O)oc2c(CN3CCCCC3)c(O)c(Cl)cc12 | inconclusive: 36.2% | –
O=C(COc1ccc(Cl)cc1)N1CCN(Cc2ccc3c(c2)OCO3)CC1 | – | inactive
O=C(NNC1=NCCN1Cc1ccccc1)c1cccc(C(F)(F)F)c1 | – | inactive
COc1ccc(NC(=O)CCCSc2ccccc2)cc1 | – | inconclusive [cytotoxic, partial curve]
CC(C)C(=O)NC(Nc1cccc2cccnc12)C(Cl)(Cl)Cl (configuration not stated) | – | inactive
Cc1cccc(NC(=O)c2cc(S(=O)(=O)N3CCCC3)cn2C)c1 | – | inactive
CN(CC(O)COC(c1ccccc1)c1ccccc1)C1CCCCC1 (configuration not stated) | – | inconclusive [cytotoxic, partial curve]
O=C(COc1ccccc1)N[C@@H]1c2ccccc2CC[C@@H]1OCc1ccccc1 | – | inactive
COc1ccc(C(=O)Nc2ccc3c(c2)C(=O)c2ccccc2C3=O)cc1OC | – | inactive
C=CC[C@H](CC(=O)N(CCO)Cc1ccccc1)C(=O)N[C@H](COC(=O)[C@@H](CC=C)Cc1ccc(F)cc1)Cc1ccccc1 | – | active: 16.4 µM
CC1(C)CC(=O)C(C=Nc2ccc(N)cc2)=C(O)C1 | – | inactive
COc1ccc(C2CC(=O)N3C(=C2C#N)SCC3(O)c2ccccc2)cc1 (configuration not stated) | – | inactive
O=C(CCl)N(c1ccc(Cl)cc1)c1c[nH]c2ccccc12 | – | active: 7.31 µM
Cc1ccn2c(NC3CCCCC3)c(-c3ccc(SC4CCCCC4)cc3)nc2c1 | – | inactive
NC(=O)CC(NC(=O)Cc1ccc(Cl)cc1)c1ccc(NCCCN2CCCC2=O)c([N+](=O)[O-])c1 (configuration not stated) | – | inconclusive [rising, single point]
CCN1CCN(C(c2ccc(F)cc2)c2nnnn2Cc2cccs2)CC1 (configuration not stated) | – | inconclusive [cytotoxic, single point]
COc1ccc(-c2[nH]ncc2-c2nc(C)cs2)c(O)c1 | – | inactive
CN(Cc1ccc(F)cc1)C(=O)c1cccc(S(=O)(=O)N2CCN(c3ccccc3)CC2)c1 | – | inactive
CC(C)CC(OC(=O)c1ccco1)C(=O)NC1CCCC1 (configuration not stated) | – | inactive
O=C(Nc1cccc(S(=O)(=O)NCc2ccco2)c1)c1cc(-c2ccc(F)cc2)nc2ccccc12 | – | inconclusive [cytotoxic, single point]
CCCc1nc2cc(C)c(Br)c(C)n2c1CC1CCCCC1 | – | inconclusive [cytotoxic, single point]
CC(=O)Nc1ccc(N=Nc2ccc(O)cc2)cc1 | – | inconclusive [cytotoxic, partial curve]
Cc1cc(N2CCN(C)CC2)ccc1NC(=O)c1ccc(-c2ccc(Cl)cc2)o1 | – | active: 23.1 µM

Compound | activity, negative = less viability | Potency
COc1ccc2ccccc2c1/C=N/NC(=S)NCCN1CCOCC1 | – | inactive
Cc1nc2c(C(=O)NCCC(C)C)c[nH]n2c(=O)c1Cc1ccccc1F | – | inconclusive [cytotoxic, single point]
COC1CCCN(Cc2c(C(=O)N3CCN(C4CCCCC4)CC3)nc3ccccn23)C1 (configuration not stated) | – | inactive
COc1cccc(/C=C2\SC(=S)N(CCCC(=O)N(CCO)c3ccccc3)C2=O)c1 | – | inconclusive [cytotoxic, single point]
Nc1nc(NCCO)nc(N2CCCCCC2)c1[N+](=O)[O-] | – | inactive
CC(OC(=O)C1=Cc2ccccc2OC1)C(=O)NCC1CCCO1 (configuration not stated) | – | inactive
O[C@@H]1[C@@H](O)C=C2CCN3Cc4cc5c(cc4[C@H]1C23)OCO5 (some centres not stated) | – | active: 1.84 µM
COC(=O)c1ccc(Oc2nc(Nc3ccc(C)c(C)c3)nc(N(C)C)n2)cc1 | – | inconclusive [cytotoxic, single point]
Cn1c2ccccc2c2cc(/C=N/NC(=O)c3ccccc3F)ccc21 | – | inconclusive [cytotoxic, single point]
O=C(Nc1ccc2oc(-c3ccc(F)cc3)nc2c1)c1ccccc1F | – | inconclusive [rising, partial curve]
O=S(=O)(CCN1C=CC(C(F)(F)F)=NCC1)c1ccc(Cl)cc1Cl | – | inactive
COCCN(C(=O)c1ccc(OC2CCN(S(=O)(=O)N(C)C)CC2)cc1)C(C)C | – | inactive
Cc1ccc(C(=O)NC(=C(Cl)Cl)S(=O)(=O)c2ccccc2)cc1 | – | inconclusive [cytotoxic, single point]
Cc1[nH]n(-c2ccccc2)c(=O)c1/C=N\NC(=O)C1COc2ccccc2O1 (configuration not stated) | – | inconclusive [cytotoxic, single point]
COCCn1c(=O)[nH]c2cc(C(=O)N3CCN(c4cc(C)ccc4C)CC3)ccc2c1=O | – | inactive
O=C(c1ccc(Cl)c(Cl)c1)N1CCC(=O)N(C(COCc2cccc(Cl)c2)Cc2ccccc2)CC1 (configuration not stated) | – | inconclusive [cytotoxic, partial curve, poor fit]
O=C(c1ccc(-c2ccccc2Cl)o1)N1CCCCCCC1 | – | inconclusive [cytotoxic, single point]
Cc1cc(Cl)ccc1OCC(=O)NNC(=O)C1CCN(c2ncnc3sc(C)c(C)c23)CC1 | – | inconclusive [cytotoxic, single point]
COc1ccccc1CNC(=S)Nc1ccc(S(N)(=O)=O)cc1 | inconclusive: -11.3% [cytotoxic] | –
COCCn1c(CN2CCN(c3cccc(Cl)c3)CC2)nc2c1c(=O)n(C)c(=O)n2C | – | inactive
Cc1cc(C(C)(C)C)oc1C(=O)N(CC(=O)NC1CCCC1)c1cccc(C(F)(F)F)c1 | – | inconclusive [cytotoxic, single point]
COc1ccc(-c2cn(CCc3c[nH]c4ccccc34)nn2)cc1 | inconclusive: -21.7% [cytotoxic] | –
CN(c1ccccc1)S(=O)(=O)c1cccc(C(=O)NCc2ccccc2CN2CCCC2)c1 | – | inconclusive [cytotoxic, single point]
CC(C)CCn1cnc2c(c1=O)c1nc3ccccc3nc1n2Cc1ccc2c(c1)OCO2 | – | inactive

— PubChem BioAssay AID686970 (National Center for Advancing Translational Sciences (NCATS), 2013)
